Experimental data from article PMC4336329 (PLoS ONE, 2015).
The campaign covered roughly 310,000 compounds. About 2,200 (0.71%) showed an effect of 50% or more. The effect is printed as a negative number. The list shows a part of the results.

molecular target: human ether-à-go-go-related gene (hERG) potassium channel (human, UniProt Q12809); assay: primary screen, population patch clamp on CHO cells stably expressing hERG
Sequence (Q12809 whole entry, looked up): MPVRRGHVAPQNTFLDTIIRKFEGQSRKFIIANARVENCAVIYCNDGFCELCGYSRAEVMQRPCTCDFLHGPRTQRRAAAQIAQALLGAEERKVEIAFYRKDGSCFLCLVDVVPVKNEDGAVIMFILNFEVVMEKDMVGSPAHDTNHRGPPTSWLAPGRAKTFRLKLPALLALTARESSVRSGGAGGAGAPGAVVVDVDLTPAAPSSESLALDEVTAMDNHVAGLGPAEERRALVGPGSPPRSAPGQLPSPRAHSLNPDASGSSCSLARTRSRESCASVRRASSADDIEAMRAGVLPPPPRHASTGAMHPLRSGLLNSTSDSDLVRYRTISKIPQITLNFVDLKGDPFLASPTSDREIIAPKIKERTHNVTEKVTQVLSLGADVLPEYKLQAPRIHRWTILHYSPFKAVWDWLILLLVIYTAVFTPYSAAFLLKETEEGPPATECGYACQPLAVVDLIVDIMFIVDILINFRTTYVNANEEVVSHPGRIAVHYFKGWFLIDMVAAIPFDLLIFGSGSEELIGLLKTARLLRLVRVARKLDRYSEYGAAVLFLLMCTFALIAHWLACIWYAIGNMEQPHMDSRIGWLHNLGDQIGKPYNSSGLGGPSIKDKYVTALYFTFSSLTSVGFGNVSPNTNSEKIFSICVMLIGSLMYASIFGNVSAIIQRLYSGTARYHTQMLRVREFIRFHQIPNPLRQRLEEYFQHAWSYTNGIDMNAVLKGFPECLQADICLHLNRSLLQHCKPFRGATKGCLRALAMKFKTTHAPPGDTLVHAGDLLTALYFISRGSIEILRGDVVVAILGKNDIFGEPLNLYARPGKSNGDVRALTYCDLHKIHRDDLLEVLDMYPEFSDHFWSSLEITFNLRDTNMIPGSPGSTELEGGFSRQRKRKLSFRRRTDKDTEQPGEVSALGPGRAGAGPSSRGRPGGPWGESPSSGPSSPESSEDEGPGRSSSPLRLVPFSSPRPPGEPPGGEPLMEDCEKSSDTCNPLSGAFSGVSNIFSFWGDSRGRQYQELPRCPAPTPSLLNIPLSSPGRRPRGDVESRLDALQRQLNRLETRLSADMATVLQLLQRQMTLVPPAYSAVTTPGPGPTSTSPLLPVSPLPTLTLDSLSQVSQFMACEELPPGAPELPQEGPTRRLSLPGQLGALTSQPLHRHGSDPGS

Going from CC(C)OCCCN1CC(=O)N2C(c3cccc([N+](=O)[O-])c3)c3[nH]c4ccccc4c3C[C@H]2C1=O (stereo partly shown) to COCCSc1ccccc1C(=O)Nc1cc([N+](=O)[O-])ccc1OC, the “hERG current change (%, negative = inhibition) at 1uM” value falls from 8.95% to 6.6%.

First: COc1cc2cc(C(=O)NCCc3ccccc3)[nH]c2cc1OC
Second: COc1ccc(OC)c(CNC(=O)Cc2c(C(=O)O)[nH]c3ccccc23)c1
The “hERG current change (%, negative = inhibition) at 1uM” value of the first is higher: 13.9% for the first, 10.7% for the second.

Going from CN(c1ccccc1)c1nc(N2CCCC2)nc(-n2ccnc2)n1 to CN(C)C(=O)CSc1nc(-c2ccccc2)nc2c1CCCC2, the “hERG current change (%, negative = inhibition) at 1uM” value rises from -1.96% to 20%.

First: O=C1NC2(CCCCCC2)C(=O)N1Cc1ccccc1Br
Second: Cc1c(C(=O)N2CCCCCC2)c(S(=O)(=O)Nc2ccccc2F)c(C)n1C
The “hERG current change (%, negative = inhibition) at 1uM” value of the first is higher: 12.6% for the first, 5.6% for the second.

Compared with OCC[C@H]1C[C@H](O)[C@@H](O)[C@@]2(Cc3ccccc3O2)O1, CC1Cc2ccccc2N1CC(=O)Nc1ccc2c(c1)OCCCO2 (stereo not shown) is lower in “hERG current change (%, negative = inhibition) at 1uM” value: 15% for the first, 2.15% for the second.

First: COc1ccc(NC(=O)CCOc2ccccc2C)cc1S(=O)(=O)N1CCCCC1
Second: COc1ccc(C(=O)NC2CCCCCC2)cc1S(=O)(=O)N1CCOCC1
The “hERG current change (%, negative = inhibition) at 1uM” value of the first is higher: 6.92% for the first, 3.05% for the second.

Compared with CC(C)C(=O)N1C2CCC1CC(O)(c1ccc(F)cc1)C2 (stereo not shown), COc1ccc(CN2CCN(C(=O)CC(C)C)CC2)cc1 is higher in “hERG current change (%, negative = inhibition) at 1uM” value: 18.6% for the first, 20.2% for the second.

First: Cc1ccc(C)n1-c1nccc(-c2ccco2)n1
Second: Brc1ccccc1C1=Nn2c(nnc2-c2ccco2)SC1
The “hERG current change (%, negative = inhibition) at 1uM” value of the first is higher: 17.1% for the first, 9.81% for the second.

First: COC(=O)c1ccc(C(=O)NC2CCCc3c2cnn3-c2cc(F)cc(F)c2)nc1 (stereo not shown)
Second: COC(=O)c1ccc(C)c(NC(=O)CN(c2ccc3c(c2)OCO3)S(C)(=O)=O)c1
The “hERG current change (%, negative = inhibition) at 1uM” value of the first is lower: 8.06% for the first, 10.8% for the second.

Going from Cc1ccc2c(c1)-c1c(ssc1=S)C(C)(C)N2C(=O)c1ccco1 to COc1ccc(NC(=O)N2CCN(C(=O)c3ccco3)CC2)c(OC)c1, the “hERG current change (%, negative = inhibition) at 1uM” value falls from 9.8% to -0.573%.

Compared with Cc1nn(Cc2ccc(Cl)cc2)c(Cl)c1/C=N/NC(=O)c1cccnc1, Cc1onc(-c2ccccc2Cl)c1C(=O)N1CCN=C1SCc1cccnc1 is higher in “hERG current change (%, negative = inhibition) at 1uM” value: -13.2% for the first, 8.2% for the second.

Compared with O=C(NNC(=O)c1cc(-c2ccco2)nc2ccccc12)c1ccccc1, CCN(Cc1ccccc1)S(=O)(=O)CCNC(=O)c1ccccc1 is lower in “hERG current change (%, negative = inhibition) at 1uM” value: 6.48% for the first, -5.92% for the second.

Going from CCOc1ccc(NC(=O)C2CCN(C(=O)N3CCOc4ccccc43)CC2)cc1 to O=C(C1COc2ccccc2O1)N1CCN(c2nc3ccccc3s2)CC1 (stereo not shown), the “hERG current change (%, negative = inhibition) at 1uM” value falls from 10.3% to 5.11%.

First: CC(c1nnc(SCn2nnc3ccccc3c2=O)n1-c1ccc(Cl)cc1)N(C)C (stereo not shown)
Second: CCC(=NCc1ccco1)c1c(O)n(-c2ccc(Cl)cc2)c(=O)[nH]c1=O
The “hERG current change (%, negative = inhibition) at 1uM” value of the first is higher: 11.9% for the first, 5.6% for the second.

Going from Cn1ccnc1C(O)c1cc(C(C)(C)C)c(O)c(C(C)(C)C)c1 (stereo not shown) to CC(C)(C)C(=O)CSc1nc2ccccc2o1, the “hERG current change (%, negative = inhibition) at 1uM” value rises from -5.25% to 4.06%.

First: CC(=O)Nc1cc(C(F)(F)F)ccc1N1CCOCC1
Second: Cc1cc(C)cc(C(=O)NCCn2cc(SCC(=O)N3CCOCC3)c3ccccc32)c1
The “hERG current change (%, negative = inhibition) at 1uM” value of the first is lower: -8.28% for the first, 6.95% for the second.

Compared with Cc1ccc(CC(=O)Nc2ccc(OC(F)F)c(Cl)c2)cc1C, COc1ccc(CCNCC(=O)Nc2c(C)cc(C)cc2C)cc1OC.Cl is higher in “hERG current change (%, negative = inhibition) at 1uM” value: 0.524% for the first, 1.73% for the second.

Going from Cc1nc(Nc2ccc(Br)cc2Br)c([N+](=O)[O-])c(=O)[nH]1 to Cc1cc(C)nc(-n2nc(C)c(Br)c2Nc2ccc(Br)cc2)n1, the “hERG current change (%, negative = inhibition) at 1uM” value rises from 3.01% to 8.85%.

Going from CCCN1C2CCCC1CC(NC(=S)Nc1cc(C)ccc1C)C2 (stereo not shown) to CC(C)(C)c1ccc(/C=N/NC(=S)NC2CCCCC2)cc1, the “hERG current change (%, negative = inhibition) at 1uM” value rises from 8.55% to 13.1%.

First: Cc1ccccc1C(=O)c1cn[nH]c1-c1ccccc1O
Second: Cc1ccc(C(=O)c2ccccc2C(=O)O)cc1C
The “hERG current change (%, negative = inhibition) at 1uM” value of the first is higher: 13.2% for the first, 6.95% for the second.

Compared with O=C(CCC(=O)Nc1ccccc1)NNC(=O)COc1ccccc1, O=C(COC(=O)Cc1ccccc1[N+](=O)[O-])Nc1nnc(-c2ccccc2)o1 is lower in “hERG current change (%, negative = inhibition) at 1uM” value: 10.7% for the first, 9.9% for the second.

Going from CCOCCCN(C)C1CCN(S(=O)(=O)c2csc(C(N)=O)c2)CC1 to CCCCN(CC)C(=O)c1oc2ccc(S(=O)(=O)N3CCCC3)cc2c1C, the “hERG current change (%, negative = inhibition) at 1uM” value rises from 6.61% to 9.89%.

First: CCOc1c(OC(C)=O)ccc(/C=C/c2ccc3cccc(OC(C)=O)c3n2)c1[N+](=O)[O-]
Second: Cc1ccc(CNC(=O)CN(C)S(=O)(=O)c2cccc3cccnc23)cc1
The “hERG current change (%, negative = inhibition) at 1uM” value of the first is lower: -0.604% for the first, 12.3% for the second.

Compared with CCOC(=O)c1c(C)n(Cc2ccccc2)c2ccc(O)cc12, CCOc1cc(Br)ccc1S(=O)(=O)NCc1ccccc1 is lower in “hERG current change (%, negative = inhibition) at 1uM” value: 6.47% for the first, -14.9% for the second.

Compared with O=C(/C=C/c1ccccc1)OCC(=O)N1CCN(c2ccccc2)CC1, Cl.O=C(CN1CCCCCC1)N1c2ccccc2C=Cc2ccccc21 is lower in “hERG current change (%, negative = inhibition) at 1uM” value: 10.5% for the first, -2.92% for the second.

First: CN(c1ccccc1)S(=O)(=O)c1ccc(C(=O)Nc2ccncc2)cc1
Second: O=C(O)CCC(=O)Nc1ccc(S(=O)(=O)Nc2nccs2)cc1
The “hERG current change (%, negative = inhibition) at 1uM” value of the first is higher: 1.78% for the first, -0.895% for the second.

Going from Cc1ccc(Nc2nnc(SCC(=O)NCCN3C(=O)CSC3=O)s2)cc1 to COc1cccc(Nc2nnc(SCC(=O)Nc3sccc3C(N)=O)s2)c1, the “hERG current change (%, negative = inhibition) at 1uM” value rises from -5.47% to 7.51%.

Compared with CCN1CCN(c2cc(C)c3cc(NC(=O)CCC(=O)Nc4ccc(OC)c(OC)c4)ccc3n2)CC1, CCN1CCN(C(=O)c2ccc(CSc3ccc(C)cc3)cc2)CC1 is lower in “hERG current change (%, negative = inhibition) at 1uM” value: 14.7% for the first, -19.7% for the second.

Going from Cc1c(C)c2c(OCC(=O)NCc3ccncc3)cc3c(c2oc1=O)CCC(C)(C)O3 to COc1cccc(-c2nc(CS(=O)(=O)CC(=O)NCCc3ccc(C)cc3)c(C)o2)c1, the “hERG current change (%, negative = inhibition) at 1uM” value falls from 14% to -0.095%.

First: Cc1ccc(S(=O)(=O)CCCS(=O)(=O)c2ccc(C)cc2)cc1
Second: CCCOc1ccc(C(=O)O/N=C(\CC)c2ccc(C)cc2)cc1
The “hERG current change (%, negative = inhibition) at 1uM” value of the first is lower: 0.115% for the first, 9.24% for the second.

Compared with COc1cc(NS(=O)(=O)c2ccc3c(c2)oc(=O)n3C)cc(OC)c1OC, COc1cc2c(C#CCCCO)c(-c3ccc(C#N)cc3)oc(=O)c2cc1OC is lower in “hERG current change (%, negative = inhibition) at 1uM” value: 16% for the first, 8.8% for the second.

Going from COC(=O)c1ccc(CSCc2ccc(C(=O)OC)o2)o1 to COC(=O)c1ccc(CSc2nc3sc(C(=O)O)c(C)c3c(=O)[nH]2)cc1, the “hERG current change (%, negative = inhibition) at 1uM” value falls from 12.3% to 11.5%.

Going from Cc1nnc(NC(=O)CCSc2ccc(Cl)cc2)s1 to CC1CCN(C(=O)CSc2nc3c(cnn3-c3ccc(Cl)cc3)c(=O)[nH]2)CC1, the “hERG current change (%, negative = inhibition) at 1uM” value rises from 1.84% to 5.16%.

Going from Cc1cccc(N2CCN(CC(O)COCc3cccs3)CC2)c1C (stereo not shown) to Cc1ccc(/C=N/NC(=O)CSc2nc3ccccc3s2)o1, the “hERG current change (%, negative = inhibition) at 1uM” value rises from -63.9% to 6.77%.

Compared with COc1cccc(-c2nn(-c3ccccc3)cc2CN(C)Cc2ccno2)c1, COc1ccc(-c2noc3c2-c2nc(-c4c(F)cccc4F)sc2CC3)cc1 is lower in “hERG current change (%, negative = inhibition) at 1uM” value: 12.5% for the first, 11.6% for the second.

Compared with COc1ccc2[nH]c(=S)[nH]c2c1, COC(=O)c1cc(-c2ccc(OC)cc2)on1 is lower in “hERG current change (%, negative = inhibition) at 1uM” value: 9.31% for the first, 6.16% for the second.

First: O=C(NNc1c(Cl)cccc1Cl)c1ccno1
Second: Cc1ccc(-c2nc(-c3ccncc3)no2)cc1Cl
The “hERG current change (%, negative = inhibition) at 1uM” value of the first is lower: 11% for the first, 14.4% for the second.

Going from CC(C(=O)N(C)CC(=O)Nc1ccccc1C(F)(F)F)N1C(=O)c2ccccc2C1=O (stereo not shown) to O=C(NCCc1ccccc1)c1ccccc1NS(=O)(=O)N1CCCC1, the “hERG current change (%, negative = inhibition) at 1uM” value rises from 1.08% to 7.47%.

Compared with CCOc1cc(C(=O)N/N=C/C2CC=CCC2)cc(OCC)c1OCC (stereo not shown), C=CCn1c(C)cc(C(=O)COC(=O)COc2ccccc2C#N)c1C is higher in “hERG current change (%, negative = inhibition) at 1uM” value: -3.74% for the first, 8.91% for the second.

Compared with Cc1[nH]c2ccc(C(=O)OCC(=O)NC3(C#N)CCCCC3)cc2c1C, O=C(NCC1CCCO1)c1cc2c(s1)CS(=O)(=O)C2 (stereo not shown) is higher in “hERG current change (%, negative = inhibition) at 1uM” value: -1.84% for the first, 9.63% for the second.

Compared with c1ccc2c(CCNc3ncnc4nc[nH]c34)c[nH]c2c1, CCCCn1nc(C(=O)NC2=NCCS2)c2ccccc2c1=O is lower in “hERG current change (%, negative = inhibition) at 1uM” value: 11.5% for the first, 2.01% for the second.

Going from O=C(CC1SCCNC1=O)Nc1cccc(Cl)c1 (stereo not shown) to CCCn1c(SCC(=O)NCc2ccc(C)cc2)n[nH]c1=O, the “hERG current change (%, negative = inhibition) at 1uM” value rises from 14.6% to 15.5%.

Compared with C=CCOc1cccc(CNn2cn[nH]c2=S)c1, CCCS(=O)(=O)c1c(S(=O)(=O)CCC)c2ccccn2c1C(=O)OC is lower in “hERG current change (%, negative = inhibition) at 1uM” value: 5.04% for the first, 1.95% for the second.

Compared with O=C(NCCNC(=O)C(F)(F)F)c1ccncc1, N/C(=N\[N+](=O)[O-])N1CCN(C(=O)c2ccccc2)CC1 is higher in “hERG current change (%, negative = inhibition) at 1uM” value: -1.68% for the first, 9.01% for the second.

First: CCC(=NCc1ccco1)c1c(O)[nH]c(=O)[nH]c1=O
Second: CCOC(=O)N1CCN(C(=O)CCS(=O)(=O)c2cc3c(cc2Cl)NC(=O)CO3)CC1
The “hERG current change (%, negative = inhibition) at 1uM” value of the first is higher: 6.41% for the first, -1.95% for the second.

In the case of Nc1ccc2nc3n(c(=O)c2c1)CCC3, the “hERG current change (%, negative = inhibition) at 1uM” value is reported as 4.9%.
